Measured values taken from PubChem BioAssay AID1452 (National Center for Advancing Translational Sciences (NCATS), 2008).
Out of some 150,000 compounds screened, about 190 (0.13%) were called active. Inconclusive results, whose numbers are uncertain, are shown with a selection of clear calls. Calls come from the whole dose curve; as a rule, active = well fitted inhibition curve with a large enough effect; inconclusive = small, poorly fitted or top-dose-only effect; inactive = flat fitted curve, though single readings scatter. Where the call is inconclusive, the potency comes from a doubtful curve fit.

target: Polyunsaturated fatty acid lipoxygenase ALOX12 (Homo sapiens) (UniProt P18054); test: qHTS Assay for Inhibitors of 12-hLO (12-human lipoxygenase); settings: purified 12-hLO, xylenol orange hydroperoxide absorbance; series mostly up to 57.1 µM; note: nearly all actives have a fitted effect of over 55% in size
UniProt P18054, sequence (P18054 whole entry, looked up): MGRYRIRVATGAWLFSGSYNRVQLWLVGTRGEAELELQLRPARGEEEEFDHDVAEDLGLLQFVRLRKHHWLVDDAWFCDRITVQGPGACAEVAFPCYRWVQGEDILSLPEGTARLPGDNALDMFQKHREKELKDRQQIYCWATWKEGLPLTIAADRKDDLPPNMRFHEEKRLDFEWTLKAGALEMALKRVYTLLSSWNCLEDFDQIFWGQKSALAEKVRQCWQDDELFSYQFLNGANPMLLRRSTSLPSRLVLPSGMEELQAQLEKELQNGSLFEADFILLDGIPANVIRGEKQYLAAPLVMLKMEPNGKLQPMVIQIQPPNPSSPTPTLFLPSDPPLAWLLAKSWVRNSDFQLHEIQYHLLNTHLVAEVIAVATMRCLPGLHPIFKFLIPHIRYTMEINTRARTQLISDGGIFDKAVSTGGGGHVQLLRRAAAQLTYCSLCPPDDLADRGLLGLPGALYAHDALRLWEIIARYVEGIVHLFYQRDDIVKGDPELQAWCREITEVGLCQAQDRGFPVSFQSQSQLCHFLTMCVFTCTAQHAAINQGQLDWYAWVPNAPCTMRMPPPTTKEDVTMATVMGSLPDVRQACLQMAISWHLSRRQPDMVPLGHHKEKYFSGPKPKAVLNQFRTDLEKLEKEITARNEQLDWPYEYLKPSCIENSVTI
Summary of the method: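 Purified human 12hLO (150 nM), preincubated 15 min with compound, then 40 uM arachidonic acid for 30 min, room temperature, Hepes pH 7.0 with 0.01% Triton X-100. Hydroperoxide detected by ferrous iron/xylenol orange; 573/405 nm absorbance ratio gives reaction progress.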
% is set by controls: 0 for no effect and ±100 for the full control effect; potency is the fitted concentration of half-maximal effect; tags give direction and shape of the fitted curve.

Row | SMILES | Potency | activity change, negative = inhibition
1 | O=C(Nc1ncn[nH]1)c1ccc(Cl)c(S(=O)(=O)Nc2ccc(Cl)cc2)c1 | inconclusive: 0.0063 µM [inhibitor, full curve] | 
2 | COCc1c(C)cc(C)c(/C=N/O)c1C | inactive | 
3 | CSc1nc(C)cc(/C=C\c2ccccc2)c1C#N | inconclusive: 6.31 µM [inhibitor, single point] | 
4 | O=C(Oc1c(Cl)cc(Cl)c2cccnc12)c1cccc([N+](=O)[O-])c1 | inconclusive: 14.1 µM [inhibitor, partial curve] | 
5 | Cc1ccc(S(=O)(=O)NNC(=O)c2sccc2-n2cccc2)cc1 | inactive | 
6 | CCCCNC(=O)c1c(O)c2cccc3c2n(c1=O)CCC3 | inconclusive: 2.82 µM [inhibitor, partial curve] | 
7 | COc1ccc2[nH]c(=O)c(CN(C3CCCCC3)C(c3nnnn3Cc3ccco3)C(C)C)cc2c1 (stereo not given) | inconclusive: 14.1 µM [inhibitor, partial curve] | 
8 | O=C1/C(=C\c2ccco2)SC(=S)N1Cc1ccccc1 | inconclusive: 25.1 µM [inhibitor, partial curve] | 
9 | CNc1nc(-c2ccccc2)[n+](-c2ccc(C)cc2)s1 | inconclusive: 31.6 µM [inhibitor, single point] | 
10 | COc1cc(C=O)ccc1OCCOCCOc1c(C)cc(Cl)cc1Cl | inconclusive: 20 µM [inhibitor, partial curve] | 
11 | C=CCn1c(CNc2ccccc2)nnc1SCC(=O)N/N=C/c1ccccc1O | inconclusive: 2.51 µM [inhibitor, full curve, poor fit] | 
12 | COC(=O)c1ccccc1NC(=O)Cn1c(-c2nonc2N)nc2ccccc21 | inactive | 
13 | COc1cc2nc(CN(C)CC(=O)Nc3ccc(N4CCOCC4)cc3)[nH]c(=O)c2cc1OC | inactive | 
14 | COc1ccc(OC)c(NC(=O)CN2C(=O)NC3(CCOc4ccccc43)C2=O)c1 (stereo not given) | inactive | 
15 | C=C(C)CNC(=S)NNC(=O)CCn1c2ccc(Cl)cc2c2cc(Cl)ccc21 | inconclusive: 14.1 µM [inhibitor, partial curve] | 
16 | CC(C)(C)c1ccc(C(=O)NC(=S)NCC2CCCO2)cc1 (stereo not given) | inconclusive: 12.6 µM [inhibitor, partial curve] | 
17 | COc1cccc(C2CC(=O)N3CN(c4cccc(Cl)c4C)CSC3=C2C#N)c1OC (stereo not given) | inconclusive: 31.6 µM [inhibitor, single point] | 
18 | O=C(/C=C/N1CCOCC1)c1ccc(-c2ccccc2)cc1 | inconclusive: 25.1 µM [inhibitor, partial curve] | 
19 | Oc1ccc(F)cc1-c1cc(-c2ccc3c(c2)OCCO3)n[nH]1 | inconclusive: 15.8 µM [inhibitor, partial curve] | 
20 | Cn1c(-c2ccc(F)cc2)cnc1NCc1cc2c(cc1[N+](=O)[O-])OCO2 | inconclusive: 25.1 µM [inhibitor, single point] | 
21 | COC(=O)c1sc(NC(=O)c2cc(-c3ccccc3)nc3ccccc23)c(C#N)c1C | inactive | 
22 | COC(=O)C1=C(C(=O)OC)[C@@H]2N(C)c3ccccc3[C@@]23C[C@@H](C(=O)OC)N(S(=O)(=O)c2ccc(C#N)cc2)C3=N1 |  | inactive: -2.36% [at 11.4 µM]
23 | CC(C)c1ccc(CNc2ccc(N3CCOCC3)cc2)cc1 | inconclusive: 17.8 µM [inhibitor, partial curve] | 
24 | Cc1cc(Cl)ccc1OCc1n[nH]c(=S)n1C1CCCCC1 | inconclusive: 25.1 µM [inhibitor, single point] | 

Row | SMILES | Potency | activity change, negative = inhibition
25 | c1ccc2c(CSc3nnc(-c4ccncc4)o3)cccc2c1 | inactive | 
26 | CN(C)/C=N/C(=S)Nc1ccc(Br)cc1F | inconclusive: 17.8 µM [inhibitor, partial curve] | 
27 | Cc1ccc(S(=O)(=O)Nc2ccc(-c3nc4cc(NS(=O)(=O)c5ccc(C)cc5)ccc4o3)cc2)cc1 | inconclusive: 3.16 µM [inhibitor, full curve, poor fit] | 
28 | CCN1C(=O)C(CC(=O)Nc2ccc(Br)cc2)N(CCCc2ccccc2)C1=S (stereo not given) | inconclusive: 31.6 µM [inhibitor, single point] | 
29 | Cc1cccnc1NCc1ccc(O)c2ncccc12 | inconclusive: 12.6 µM [inhibitor, partial curve] | 
30 | COC(=O)CSc1nc(NCC(C)C)nc(N2CCOCC2)n1 | inactive | 
31 | COc1ccc(NC(=O)c2ccc3c(c2)OCO3)cc1Cl | inactive | 
32 | NCc1ccccc1COc1ccccc1 | inactive | 
33 | COc1ccc(C2SCCN2C(=S)Nc2cccc(Cl)c2)cc1 (stereo not given) | inconclusive: 39.8 µM [inhibitor, single point] | 
34 | CC(/C=N/n1c(-c2ccco2)n[nH]c1=S)=C\c1ccccc1 | inconclusive: 35.5 µM [inhibitor, single point] | 
35 | CCSC1=NC(C)(C)C=C(/C=C/c2ccc(Cl)cc2Cl)N1 | inconclusive: 22.4 µM [inhibitor, partial curve] | 
36 | CCc1cccc(C)c1NC(=S)NCc1ccc2c(c1)cc(C)n2C | inconclusive: 25.1 µM [inhibitor, single point] | 
37 | Cc1cc(C)c2c(=O)n(CC(=O)NCCCN3CCN(c4ccccc4F)CC3)sc2n1 | inconclusive: 2 µM [inhibitor, full curve] | 
38 | CC12CC3CC(C)(C1)CC(C(=O)NC(=S)N1CCCCC1)(C3)C2 | active: 15.8 µM | 
39 | O=C(Nc1ccc(Cl)c(Cl)c1)N1CCSC1c1ccco1 (stereo not given) | inconclusive: 28.2 µM [inhibitor, partial curve] | 
40 | Cc1cccc(NC(=S)N/N=C2\CC(C)(C)Oc3ccc(O)cc32)c1 | inconclusive: 15.8 µM [inhibitor, partial curve] | 
41 | O=C(NCc1ccco1)c1ccc(CNc2c(N3CCCCC3)c(=O)c2=O)cc1 | inactive | 
42 | Cc1ccccc1C(C(=O)NCc1ccccc1)N(Cc1ccco1)C(=O)c1ccccn1 (stereo not given) | inconclusive: 39.8 µM [inhibitor, single point] | 
43 | CN(CC(=O)N1CC(=O)N(CCc2ccccc2)C(=O)C1)S(=O)(=O)c1cccc2nsnc12 | inactive | 
44 | CC(=O)N1CCN(c2ccc(NCc3ccc(C(C)C)cc3)cc2)CC1 | inconclusive: 14.1 µM [inhibitor, partial curve] | 
45 | CN(C)/C=C1\C=C(c2ccccc2)OC1=O | inconclusive: 14.1 µM [inhibitor, partial curve] | 
46 | Oc1ccc(CNc2ccccc2F)c2cccnc12 | inconclusive: 11.2 µM [inhibitor, partial curve] | 
47 | COc1cccc(OC)c1C(=O)NC(=S)Nc1ccc2c(c1)Cc1ccccc1-2 | inconclusive: 2.82 µM [inhibitor, full curve] | 
48 | O=C(CC1SC(=Nc2ccccc2)N(Cc2ccccn2)C1=O)Nc1ccc(Br)cc1 (stereo not given) | inconclusive: 3.16 µM [inhibitor, full curve, poor fit] | 

Row | SMILES | Potency | activity change, negative = inhibition
49 | Cc1ccc(NC(=O)C(C)N2C(=O)C3C4CC(C(Br)C4Br)C3C2=O)cc1 (stereo not given) | inconclusive: 28.2 µM [inhibitor, single point] | 
50 | CC(=O)N1CCN(c2ccc(OC[C@@H]3CO[C@@](Cn4ccnc4)(c4ccc(Cl)cc4Cl)O3)cc2)CC1 | inactive | 
51 | Cc1cccc(Oc2nc(-c3cccc([N+](=O)[O-])c3)nc3ccccc23)c1C | inactive | 
52 | COc1cc(SC)ccc1C(=O)NCCCOC(C)C | inactive | 
53 | Cc1ccc(NC(=O)CN2C(=O)N/C(=C/c3ccc(C)o3)C2=O)cc1 | inconclusive: 22.4 µM [inhibitor, single point] | 
54 | CC1(C)CC(C)(c2ccc(O)cc2O)N(c2cccc(Cl)c2)C(=S)N1 (stereo not given) | inconclusive: 25.1 µM [inhibitor, single point] | 
55 | CCOC(=O)C1=C(C)NC(C)=C(C(=O)OCC)C1c1cc2ccc(C)cc2[nH]c1=O | inconclusive: 28.2 µM [inhibitor, single point] | 
56 | CCOC(=O)C1(C)/C(=N/Nc2ccccc2Cl)C(=O)C(=O)N1c1ccccc1 (stereo not given) | inconclusive: 5.62 µM [inhibitor, partial curve] | 
57 | CCOC(=O)C1CCN(C(=O)CSc2ccc(Cl)cc2)CC1 | inactive | 
58 | C=CC1=C(C)C2=NC1=CC1=NC(=CC3=NC(=CC4=NC(=C2)C(C)=C4CCC(=O)O)C(CCC(=O)O)=C3C)C(C=C)=C1C.[Zn] | inconclusive: 15.8 µM [inhibitor, partial curve] | 
59 | CC(C)c1ccc(SCc2noc(C(=O)NCC3CCCO3)c2C(=O)O)cc1 (stereo not given) | inactive | 
60 | Cn1c(=O)[nH]c(=O)c2c1nc(SCCN1CCOCC1)n2Cc1ccccc1 | inactive | 
61 | CC[n+]1c(/C=C/C=C/N(C(C)=O)c2ccccc2)sc2ccccc21 | inconclusive: 22.4 µM [inhibitor, partial curve] | 
62 | O=C1C(SCCO)=C(SCCO)C(=O)c2ccccc21 | inconclusive: 7.08 µM [inhibitor, full curve] | 
63 | O=C(Nc1ccccc1)N1CCC2(CC1)CCN(S(=O)(=O)c1ccccc1)CC2 | inactive | 
64 | O=C(Nc1ccc2c(c1)OCCO2)c1cccc(S(=O)(=O)N2CCOCC2)c1 | inactive | 
65 | CCOC(=O)c1cc(C#N)c(NCc2ccccc2)nc1C | inactive | 
66 | CCNc1ccc(Br)cc(C(=O)/C=C/c2ccc(Cl)cc2)c1=O | inconclusive: 5.01 µM [inhibitor, partial curve] | 
67 | COc1ccc(CCNC(=S)NC(=O)c2ccccc2)cc1OC | active: 14.1 µM | 
68 | CCc1ccc2c(c1)/C(=C/C(=O)c1cccs1)C(=O)N2 | inconclusive: 28.2 µM [inhibitor, single point] | 
69 | CC(=O)N/C(=C/c1ccc2c(c1)OCO2)C(=O)NCC(=O)O | inactive | 
70 | O=C1N/C(=N/Nc2ccccc2)S/C1=C\c1ccccc1 | inconclusive: 10 µM [inhibitor, partial curve] | 
